The supplement of paper PMC4967469

Key:
Assay in all cases: Viability of human cancer cell lines after 72 h of drug (GDSC screen)
[1] = compound: COc1cc2nccc(Oc3ccc(NC(=O)C4(C(=O)Nc5ccc(F)cc5)CC4)cc3)c2cc1OC [XL-184]; settings: top dose 5.12 µM; top dose inferred
Description: (§1)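 Human cancer cell lines in 384-well plates, medium with 10% serum, drug for 72 h over a 256-fold dose range (nine 2-fold or five 4-fold steps up to the top dose). Adherent lines were fixed and stained with the nucleic acid dye Syto60, suspension lines read with resazurin; signal relative to control wells, capped at 0 and 100%. One two-parameter sigmoid per drug and line, fitted in a mixed model over all curves with the slope shared within a line.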

[2] = compound: COc1cc2ncnc(Nc3cc(Br)c(O)c(Br)c3)c2cc1OC [WHI-P97]; settings: top dose 10.24 µM; top dose inferred
Description: as §1

[3] = compound: CNCc1ccc(-c2[nH]c3cc(F)cc4c3c2CCNC4=O)cc1 [AG-014699]; settings: top dose 5 µM; top dose inferred
Description: as §1

[4] = compound: N=C(N)NC(=N)NCCc1ccccc1 [Phenformin]; settings: top dose 4000 µM; top dose inferred
Description: as §1

[5] = compound: C=CC(=O)Nc1cc(NC(=O)c2ccc(C)c(NC(=O)c3ccno3)c2)cc(C(F)(F)F)c1 [QL-XI-92]; settings: top dose 10.24 µM; top dose inferred
Description: as §1

[6] = compound: O=c1cc(N2CCOCC2)oc2c(-c3cccc4c3sc3ccccc34)cccc12 [NU-7441]; settings: top dose 2 µM; top dose inferred
Description: as §1

[7] = compound: O=c1cc(CN2CCOCC2)occ1OCCCCCSc1ccnc2cc(C(F)(F)F)ccc12 [EHT 1864]; settings: top dose 10 µM; top dose inferred
Description: as §1

[8] = compound: COc1cc2ncnc(Nc3ccc(F)c(Cl)c3)c2cc1OCCCN1CCOCC1 [Gefitinib]; settings: top dose 0.5 µM
Description: as §1

[9] = compound: CCC1=C[C@@H]2CN(C1)Cc1c([nH]c3ccccc13)[C@@](C(=O)OC)(c1cc3c(cc1OC)N(C)[C@H]1[C@@](O)(C(=O)OC)[C@H](OC(C)=O)[C@]4(CC)C=CCN5CC[C@]31[C@@H]54)C2 [Vinorelbine]; settings: top dose 0.064 µM; top dose inferred
Description: as §1

Cell Line | AUC [1] | pIC50 [1] | AUC [2] | pIC50 [2] | AUC [3] | pIC50 [3] | AUC [4] | pIC50 [4] | AUC [5] | pIC50 [5] | AUC [6] | pIC50 [6] | AUC [7] | pIC50 [7] | AUC [8] | pIC50 [8] | AUC [9] | pIC50 [9]
BICR22 (head and neck, adherent) | 0.913 | < 5.29 | 0.974 | < 4.99 | 0.926 | < 5.30 | 0.203 | 4.55 | 0.967 | < 4.99 | 0.914 | < 5.70 | 0.923 | < 5.00 | 0.896 | < 6.30 | 0.899 | < 7.19
BICR78 (head and neck, adherent) | 0.949 | < 5.29 | 0.98 | < 4.99 | 0.963 | < 5.30 | 0.823 | 2.55 | 0.981 | < 4.99 | 0.899 | < 5.70 | 0.921 | < 5.00 | 0.583 | 7.26 | 0.731 | 7.69
BT-483 (breast, adherent) | 0.976 | < 5.29 | 0.95 | < 4.99 | 0.969 | < 5.30 | 0.975 | < 2.40 | 0.967 | < 4.99 | 0.972 | < 5.70 | 0.876 | < 5.00 | 0.963 | < 6.30 | 0.947 | < 7.19
C3A (liver, adherent) | 0.988 | < 5.29 | 0.988 | < 4.99 | 0.976 | < 5.30 | 0.904 | < 2.40 | 0.988 | < 4.99 | 0.988 | < 5.70 | 0.884 | < 5.00 | 0.973 | < 6.30 | 0.904 | < 7.19
C32 (melanoma, adherent) | 0.987 | < 5.29 | 0.987 | < 4.99 | 0.981 | < 5.30 | 0.851 | 2.47 | 0.987 | < 4.99 | 0.98 | < 5.70 | 0.977 | < 5.00 | 0.97 | < 6.30 | 0.962 | < 7.19
C-4-I (cervix, adherent) | 0.961 | < 5.29 | 0.984 | < 4.99 | 0.985 | < 5.30 | 0.937 | < 2.40 | 0.986 | < 4.99 | 0.975 | < 5.70 | 0.984 | < 5.00 | 0.956 | < 6.30 | 0.669 | 7.91
C-33-A (cervix, adherent) | 0.9 | < 5.29 | 0.862 | 5.06 | 0.985 | < 5.30 | 0.23 | 4.39 | 0.976 | < 4.99 | 0.974 | < 5.70 | 0.925 | < 5.00 | 0.941 | < 6.30 | 0.56 | 8.23
CAL-12T (non-small cell lung carcinoma, adherent) | 0.884 | < 5.29 | 0.815 | 5.19 | 0.966 | < 5.30 | 0.581 | 3.37 | 0.893 | < 4.99 | 0.906 | < 5.70 | 0.947 | < 5.00 | 0.894 | < 6.30 | 0.732 | 7.70
CAL-27 (head and neck, adherent) | 0.944 | < 5.29 | 0.907 | < 4.99 | 0.97 | < 5.30 | 0.942 | < 2.40 | 0.974 | < 4.99 | 0.935 | < 5.70 | 0.96 | < 5.00 | 0.618 | 7.18 | 0.69 | 7.86
CAL-29 (bladder, adherent) | 0.965 | < 5.29 | 0.98 | < 4.99 | 0.946 | < 5.30 | 0.973 | < 2.40 | 0.985 | < 4.99 | 0.943 | < 5.70 | 0.966 | < 5.00 | 0.898 | < 6.30 | 0.741 | 7.68
CAL-33 (head and neck, adherent) | 0.959 | < 5.29 | 0.965 | < 4.99 | 0.955 | < 5.30 | 0.887 | < 2.40 | 0.939 | < 4.99 | 0.918 | < 5.70 | 0.951 | < 5.00 | 0.736 | 6.83 | 0.547 | 8.27
CAL-39 (cervix, adherent) | 0.909 | < 5.29 | 0.925 | < 4.99 | 0.964 | < 5.30 | 0.968 | < 2.40 | 0.981 | < 4.99 | 0.983 | < 5.70 | 0.953 | < 5.00 | 0.863 | 6.34 | 0.518 | 8.35
CAL-51 (breast, adherent) | 0.991 | < 5.29 | 0.991 | < 4.99 | 0.837 | 5.57 | 0.833 | 2.68 | 0.986 | < 4.99 | 0.911 | < 5.70 | 0.95 | < 5.00 | 0.975 | < 6.30 | 0.632 | 8.06
CAL-72 (osteosarcoma, adherent) | 0.984 | < 5.29 | 0.984 | < 4.99 | 0.976 | < 5.30 | 0.867 | < 2.40 | 0.984 | < 4.99 | 0.928 | < 5.70 | 0.982 | < 5.00 | 0.984 | < 6.30 | 0.926 | < 7.19
CAL-78 (chondrosarcoma, adherent) | 0.907 | < 5.29 | 0.985 | < 4.99 | 0.986 | < 5.30 | 0.841 | 2.47 | 0.986 | < 4.99 | 0.975 | < 5.70 | 0.986 | < 5.00 | 0.986 | < 6.30 | 0.826 | 7.33

pIC50: −log10 of the molar value. A lower IC50 marks a more sensitive line; where the fit passes the top or lowest dose, that dose stands as a limit. AUC sums up the same curve from the lowest dose to the 256-fold higher top dose; it is 1 without any effect and falls as sensitivity rises. For part of these data: Where the top dose is marked as inferred, it comes from the curve model; the source does not state it.
